# From the supplement of paper PMC8728848
# The other results are listed elsewhere or left out.
# B1: ABA (Agaricus bisporus), Q00022 (protein)
# chain: MTYTISIRVYQTTPKGFFRPVERTNWKYANGGTWDEVRGEYVLTMGGSGTSGSLRFVSSDTDESFVATFGVHNYKRWCDIVTNLTNEQTALVINQEYYGVPIRDQARENQLTSYNVANAKGRRFAIEYTVTEGDNLKANLIIG
# What was measured:
# Assay in all cases: glycan array binding signal (z-score within array); higher = stronger binding
# Settings in all cases: glycan notation: IUPAC condensed, linker removed
# [1] = target: Fuc(a1-2)[Gal(a1-3)]Gal(b1-4)GlcNAc(b1-2)Man
# Summary of the method: (§1)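 The binding signal is a Z-score computed within each array and averaged over linkers. Arrays of the same protein sequence at different concentrations or buffers were also averaged together. Data originate from 3228 arrays in the Consortium for Functional Glycomics database, kept only where the protein sequence was available.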
# [2] = target: Fuc(a1-2)[Gal(a1-3)]Gal(b1-4)GlcNAc(b1-2)Man(a1-3)[Fuc(a1-2)[Gal(a1-3)]Gal(b1-4)GlcNAc(b1-2)Man(a1-6)]Man(b1-4)GlcNAc(b1-4)GlcNAc
# Summary of the method: as §1
# [3] = target: Fuc(a1-2)[Gal(a1-3)]Gal(b1-4)GlcNAc(b1-2)Man(a1-3)[Fuc(a1-2)[Gal(a1-3)]Gal(b1-4)GlcNAc(b1-2)Man(a1-6)]Man(b1-4)GlcNAc(b1-4)[Fuc(a1-6)]GlcNAc
# Summary of the method: as §1
# [4] = target: Fuc(a1-2)[Gal(a1-3)]Gal(b1-4)GlcNAc(b1-3)GalNAc
# Summary of the method: as §1
# [5] = target: Fuc(a1-2)[Gal(a1-3)]Gal(b1-4)GlcNAc(b1-3)[Fuc(a1-2)[Gal(a1-3)]Gal(b1-4)GlcNAc(b1-6)]GalNAc
# Summary of the method: as §1
# [6] = target: Fuc(a1-2)[Gal(a1-3)]Gal(b1-4)GlcNAc(b1-6)GalNAc
# Summary of the method: as §1
# [7] = target: Fuc(a1-2)[Gal(a1-3)]Gal(b1-4)[Fuc(a1-3)]Glc
# Summary of the method: as §1
# [8] = target: Fuc(a1-2)[Gal(a1-3)]Gal(b1-4)[Fuc(a1-3)]GlcNAc
# Summary of the method: as §1
# [9] = target: Fuc(a1-2)[Gal(a1-3)]Gal(b1-4)[Fuc(a1-3)]GlcNAc(b1-3)GalNAc
# Summary of the method: as §1
# [10] = target: Fuc(a1-2)[Gal(a1-4)]Gal(b1-4)GlcNAc
# Summary of the method: as §1
# [11] = target: Fuc(a1-2)[GalNAc(a1-3)]Gal
# Summary of the method: as §1
# [12] = target: Fuc(a1-2)[GalNAc(a1-3)]Gal(b1-3)GalNAc(a1-3)[Fuc(a1-2)]Gal(b1-4)GlcNAc
# Summary of the method: as §1
# [13] = target: Fuc(a1-2)[GalNAc(a1-3)]Gal(b1-3)GalNAc(b1-3)Gal(a1-4)Gal(b1-4)Glc
# Summary of the method: as §1
# [14] = target: Fuc(a1-2)[GalNAc(a1-3)]Gal(b1-3)GlcNAc
# Summary of the method: as §1
# [15] = target: Fuc(a1-2)[GalNAc(a1-3)]Gal(b1-3)GlcNAc(b1-2)Man(a1-3)[Fuc(a1-2)[GalNAc(a1-3)]Gal(b1-3)GlcNAc(b1-2)Man(a1-6)]Man(b1-4)GlcNAc(b1-4)GlcNAc
# Summary of the method: as §1
# [16] = target: Fuc(a1-2)[GalNAc(a1-3)]Gal(b1-3)GlcNAc(b1-2)Man(a1-3)[Fuc(a1-2)[GalNAc(a1-3)]Gal(b1-3)GlcNAc(b1-2)Man(a1-6)]Man(b1-4)GlcNAc(b1-4)[Fuc(a1-6)]GlcNAc
# Summary of the method: as §1
# [17] = target: Fuc(a1-2)[GalNAc(a1-3)]Gal(b1-3)GlcNAc(b1-3)GalNAc
# Summary of the method: as §1
# [18] = target: Fuc(a1-2)[GalNAc(a1-3)]Gal(b1-3)GlcNAc(b1-6)GalNAc
# Summary of the method: as §1
# [19] = target: Fuc(a1-2)[GalNAc(a1-3)]Gal(b1-4)Glc
# Summary of the method: as §1
# [20] = target: Fuc(a1-2)[GalNAc(a1-3)]Gal(b1-4)GlcNAc
# Summary of the method: as §1
# [21] = target: Fuc(a1-2)[GalNAc(a1-3)]Gal(b1-4)GlcNAc(b1-2)Man
# Summary of the method: as §1
# [22] = target: Fuc(a1-2)[GalNAc(a1-3)]Gal(b1-4)GlcNAc(b1-2)Man(a1-3)[Fuc(a1-2)[GalNAc(a1-3)]Gal(b1-4)GlcNAc(b1-2)Man(a1-6)]Man(b1-4)GlcNAc(b1-4)GlcNAc
# Summary of the method: as §1
# [23] = target: Fuc(a1-2)[GalNAc(a1-3)]Gal(b1-4)GlcNAc(b1-2)Man(a1-3)[Fuc(a1-2)[GalNAc(a1-3)]Gal(b1-4)GlcNAc(b1-2)Man(a1-6)]Man(b1-4)GlcNAc(b1-4)[Fuc(a1-6)]GlcNAc
# Summary of the method: as §1
# [24] = target: Fuc(a1-2)[GalNAc(a1-3)]Gal(b1-4)GlcNAc(b1-3)Gal(b1-4)GlcNAc
# Summary of the method: as §1
# [25] = target: Fuc(a1-2)[GalNAc(a1-3)]Gal(b1-4)GlcNAc(b1-3)Gal(b1-4)GlcNAc(b1-3)Gal(b1-4)GlcNAc
# Summary of the method: as §1
# [26] = target: Fuc(a1-2)[GalNAc(a1-3)]Gal(b1-4)GlcNAc(b1-3)GalNAc
# Summary of the method: as §1
# [27] = target: Fuc(a1-2)[GalNAc(a1-3)]Gal(b1-4)GlcNAc(b1-3)[Fuc(a1-2)[GalNAc(a1-3)]Gal(b1-4)GlcNAc(b1-6)]GalNAc
# Summary of the method: as §1
# [28] = target: Fuc(a1-2)[GalNAc(a1-3)]Gal(b1-4)GlcNAc(b1-6)GalNAc
# Summary of the method: as §1
# [29] = target: Fuc(a1-2)[GalNAc(a1-3)]Gal(b1-4)[Fuc(a1-3)]GlcNAc
# Summary of the method: as §1
# [30] = target: Fuc(a1-2)[GalNAc(a1-3)]Gal(b1-4)[Fuc(a1-3)]GlcNAc(b1-3)GalNAc
# Summary of the method: as §1
# [31] = target: Fuc(a1-2)[GalNAc(a1-4)]Gal(b1-4)GlcNAc
# Summary of the method: as §1
# [32] = target: Fuc(a1-2)[GalNAc(b1-3)]Gal
# Summary of the method: as §1
# Fuc(a1-3)GlcNAc = target: Fuc(a1-3)GlcNAc
# Summary of the method: as §1
# [33] = target: Fuc(a1-3)[Gal(b1-4)]Glc6S
# Summary of the method: as §1
# [34] = target: Fuc(a1-3)[Gal(b1-4)]GlcNAc
# Summary of the method: as §1
# [35] = target: Fuc(a1-3)[Gal(b1-4)]GlcNAc(b1-2)Man
# Summary of the method: as §1
# [36] = target: Fuc(a1-3)[Gal(b1-4)]GlcNAc(b1-2)Man(a1-3)[Fuc(a1-3)[Gal(b1-4)]GlcNAc(b1-2)Man(a1-6)]Man(b1-4)GlcNAc(b1-4)GlcNAc
# Summary of the method: as §1
# [37] = target: Fuc(a1-3)[Gal(b1-4)]GlcNAc(b1-2)Man(a1-3)[Fuc(a1-3)[Gal(b1-4)]GlcNAc(b1-2)Man(a1-6)]Man(b1-4)GlcNAc(b1-4)[Fuc(a1-6)]GlcNAc
# Summary of the method: as §1
# [38] = target: Fuc(a1-3)[Gal(b1-4)]GlcNAc(b1-3)Gal(b1-3)[Fuc(a1-4)]GlcNAc
# Summary of the method: as §1
# [39] = target: Fuc(a1-3)[Gal(b1-4)]GlcNAc(b1-3)Gal(b1-4)[Fuc(a1-3)]GlcNAc
# Summary of the method: as §1
# [40] = target: Fuc(a1-3)[Gal(b1-4)]GlcNAc(b1-3)Gal(b1-4)[Fuc(a1-3)]GlcNAc(b1-3)Gal(b1-4)[Fuc(a1-3)]GlcNAc
# Summary of the method: as §1
# [41] = target: Fuc(a1-3)[Gal(b1-4)]GlcNAc(b1-3)GalNAc
# Summary of the method: as §1
# [42] = target: Fuc(a1-3)[Gal(b1-4)]GlcNAc(b1-4)Gal(b1-4)[Fuc(a1-3)]GlcNAc
# Summary of the method: as §1
# [43] = target: Fuc(a1-3)[Gal(b1-4)]GlcNAc(b1-4)Gal(b1-4)[Fuc(a1-3)]GlcNAc(b1-4)Gal(b1-4)[Fuc(a1-3)]GlcNAc
# Summary of the method: as §1
# [44] = target: Fuc(a1-3)[Gal(b1-4)]GlcNAc(b1-6)GalNAc
# Summary of the method: as §1
binder,measurement,setting,value
B1,glycan array binding signal (z-score),[1],-0.222
same,glycan array binding signal (z-score),[2],-0.211
same,glycan array binding signal (z-score),[3],-0.173
same,glycan array binding signal (z-score),[4],-0.214
same,glycan array binding signal (z-score),[5],-0.222
same,glycan array binding signal (z-score),[6],-0.15
same,glycan array binding signal (z-score),[7],-0.219
same,glycan array binding signal (z-score),[8],-0.155
same,glycan array binding signal (z-score),[9],-0.225
same,glycan array binding signal (z-score),[10],-0.312
same,glycan array binding signal (z-score),[11],-0.252
same,glycan array binding signal (z-score),[12],-0.208
same,glycan array binding signal (z-score),[13],-0.286
same,glycan array binding signal (z-score),[14],-0.255
same,glycan array binding signal (z-score),[15],-0.23
same,glycan array binding signal (z-score),[16],-0.168
same,glycan array binding signal (z-score),[17],-0.211
same,glycan array binding signal (z-score),[18],-0.253
same,glycan array binding signal (z-score),[19],-0.228
same,glycan array binding signal (z-score),[20],-0.237
same,glycan array binding signal (z-score),[21],-0.282
same,glycan array binding signal (z-score),[22],-0.241
same,glycan array binding signal (z-score),[23],-0.138
same,glycan array binding signal (z-score),[24],-0.091
same,glycan array binding signal (z-score),[25],0.28
same,glycan array binding signal (z-score),[26],-0.234
same,glycan array binding signal (z-score),[27],-0.234
same,glycan array binding signal (z-score),[28],-0.259
same,glycan array binding signal (z-score),[29],0.025
same,glycan array binding signal (z-score),[30],-0.222
same,glycan array binding signal (z-score),[31],-0.269
same,glycan array binding signal (z-score),[32],-0.26
same,glycan array binding signal (z-score),Fuc(a1-3)GlcNAc,-0.267
same,glycan array binding signal (z-score),[33],-0.094
same,glycan array binding signal (z-score),[34],-0.227
same,glycan array binding signal (z-score),[35],-0.161
same,glycan array binding signal (z-score),[36],-0.176
same,glycan array binding signal (z-score),[37],-0.234
same,glycan array binding signal (z-score),[38],-0.058
same,glycan array binding signal (z-score),[39],-0.223
same,glycan array binding signal (z-score),[40],-0.281
same,glycan array binding signal (z-score),[41],-0.197
same,glycan array binding signal (z-score),[42],-0.164
same,glycan array binding signal (z-score),[43],-0.186
same,glycan array binding signal (z-score),[44],-0.164
